Screen size: about 52,000 compounds; about 1,700 (3.3%) were called active. Rule as the data show it: active = survival mostly below about 52% (no sharp cut-off); inactive = mostly above about 56%. Some of the results follow.

The test system of this assay is Wild type. Description: S. aureus survival, RN4220 and DeltatarO strains – OD600, teichoic acid synthesis inhibitors, primary screen (AID 463173). The following applies: S. aureus RN4220 wild type/DeltatarO growth, OD600, 18 h, hits give low values, screened at 18.75 µg/mL (by protocol).
As to `Cc1ccc2[nH]c(=O)c(CN(CC3CCCO3)C(=S)NCCCN3CCOCC3)cc2c1` (stereo unspecified), the survival was inactive: 111%.

With `CC(C)N(Cc1ccccc1)C(=O)Cn1ncc2c([nH]c3ccccc32)c1=O`, the survival is inactive: 79%.

`CCc1nnc(NC(=O)C(=O)c2cc(C)n(-c3ccccc3)c2C)s1`: the survival is inactive: 89%.

With `O=C(N1CCOCC1)N1CCOCC1`, the survival was inactive: 101%.

Take `Cc1cc(C)cc(NC(=O)C2CCCN(C(=O)c3cnn(-c4ccccc4)c3-n3cccc3)C2)c1` (stereo unspecified): the survival was inactive: 73%.

With `O=C(CSc1nc2c([nH]c3ccccc32)c(=O)n1-c1ccc(Cl)cc1)N1CCOCC1`, the survival was inactive: 128%.

Turning to `CCC1CCCCN1CC(=O)Nc1cc(C)c2c(=O)oc3ccccc3c2n1` (stereo unspecified), the survival is inactive: 83%.

Consider `O=C(c1ccccc1/S(=N/S(=O)(=O)c1ccccc1)N1CCOCC1)N1CCOCC1` (stereo unspecified), for which the survival is inactive: 106%.

With `CCN(C(=O)c1cccs1)c1nnc(-c2cccc(C)c2)s1`, the survival was inactive: 115%.

Turning to `O=S(=O)(NCC(c1ccco1)N1CCOCC1)c1cc(F)ccc1F` (stereo unspecified), the survival was inactive: 81%.

With `Cc1cccc(NC(=O)CSc2c(C)cnc3c2c(=O)n(C)c(=O)n3C)c1C`, the survival is inactive: 56%.

Take `Cc1ccc(-c2nonc2NC(=O)c2ccc(F)cc2)cc1C`: the survival is inactive: 85%.

As for `Cc1ccc(NC(=O)N2CCC(c3ccccc3)C2)cc1C` (stereo unspecified), the survival is inactive: 74%.

Turning to `O=C(CCc1ccccc1)N(Cc1cccnc1)c1nc2c(F)cccc2s1`, the survival was inactive: 55%.

With `COc1cc(C(=O)NCC(c2ccco2)S(=O)(=O)c2ccccc2)cc(OC)c1OC` (stereo unspecified), the survival was inactive: 75%.

With `CCc1nn(C(CC)C(=O)NCc2ccc(F)cc2)c(=O)c2cc3occc3n12` (stereo unspecified), the survival was inactive: 84%.

For `CC1=C(C(=O)Nc2ccccc2)C(CC(C)C)n2nc(SCc3ccccc3C)nc2N1` (stereo unspecified), the survival is inactive: 81%.

For `O=C(c1cc2c(s1)-c1ccccc1OC2)N1CCN(c2ccccc2)CC1`, the survival was inactive: 72%.

As for `CCCOc1ccc(C(=O)N(Cc2ccc(N(C)C)cc2)CC2CCCO2)cc1` (stereo unspecified), the survival is inactive: 83%.

Take `CCCN(CCC)CCCNC(=O)Cn1ncc2c3ccccc3n(Cc3ccccc3)c2c1=O`: the survival was inactive: 93%.

As for `Cc1ccc(NC(=O)Cc2csc(C)n2)c(C)c1`, the survival was inactive: 82%.

For the compound `Cc1ccc(C(=O)Nc2ccc(OCc3cc(=O)n4c(C)csc4n3)cc2)cc1`, the survival was inactive: 93%.

Consider `Cc1nc(-c2ccc(Cl)cc2)sc1CCNC(=O)c1cccs1`, for which the survival is inactive: 119%.

In the case of `Cc1cccc(NC(=O)CSc2nncn2C)c1`, the survival is inactive: 83%.

Take `Cc1ccc(Nc2c(-c3ccc(O)cc3)nc3cccc(C)n23)cc1`: the survival is inactive: 91%.

In the case of `CCCOc1ccc(-c2nc(SC)[nH]c(=O)c2C#N)cc1OC`, the survival was inactive: 90%.

As to `CCN(CC)CCN(C(=O)c1ccco1)c1nc2ccc(Br)cc2s1`, the survival is inactive: 67%.

With `CC(=O)Nc1nonc1-c1nnc(SCC(=O)Nc2cc(C)cc(C)c2)n1-c1ccccc1`, the survival is inactive: 69%.

Take `Cc1ccc(S(=O)(=O)c2c(Nc3cc(F)ccc3F)sc(C(=O)c3ccc(F)cc3)c2N)cc1`: the survival was inactive: 82%.

For the compound `O=C(c1ccc2c(c1)N(Cc1ccccc1)C(=O)c1ccccc1S2(=O)=O)N1CCCCCC1`, the survival was inactive: 82%.

Take `CCc1ccc(NC(=O)CC2C(=O)N(c3ccc(C)cc3)C(=O)N2C2CCCC2)cc1` (stereo unspecified): the survival is inactive: 83%.

Consider `CC(C)(C)c1ccc(Oc2nc3ccccn3c(=O)c2/C=C(\C#N)c2nc3ccccc3s2)cc1`, for which the survival is inactive: 78%.

As to `COc1cc(NC(=O)Cn2ccn(-c3cc(C)cc(C)c3)c(=O)c2=O)cc(OC)c1`, the survival is inactive: 84%.

As to `Cc1cc(C)cc(NC(=O)CSc2nc(=O)[nH]c3c2CCC3)c1`, the survival was inactive: 121%.

Turning to `CC(C)CN(CCNC(=O)c1cn(C)c2ccc(S(=O)(=O)N3CCCCCC3)cc2c1=O)CC(C)C`, the survival is inactive: 90%.

In the case of `CN(C)c1oc(-c2ccc(COc3ccccc3)o2)nc1C#N`, the survival is inactive: 71%.

`COc1ccc(N2CCN(S(=O)(=O)CCNC(=O)c3cc(=O)c4ccccc4o3)CC2)cc1`: the survival was inactive: 78%.

In the case of `Oc1ccc(-c2nnc(SCC3CCCCC3)o2)cc1`, the survival was inactive: 99%.

`Cc1cc(C)cc(NC(=O)CSc2nc3ncccc3[nH]2)c1`: the survival is inactive: 88%.

As to `Cc1ccc(NC(=O)C(=O)NCC(c2ccc3c(c2)OCO3)N2CCN(C)CC2)c(C)c1` (stereo unspecified), the survival is inactive: 77%.

As for `Cc1ccc(NC(=O)C(Cc2ccccc2)NS(=O)(=O)c2ccc3c(c2)CCC(=O)N3)cc1` (stereo unspecified), the survival is inactive: 131%.

As for `CS(=O)(=O)c1cccc(-c2nnc(NC(=O)c3ccc4c(c3)OCCO4)o2)c1`, the survival was inactive: 67%.

As for `CCOC(=O)N1CCC(NC(=O)c2cnn(-c3ccc(C)cc3C)c2C2CCN(C(=O)OC(C)(C)C)CC2)CC1`, the survival is inactive: 130%.

For the compound `CC(=O)Nc1cccc(Nc2nc3ccccc3n3c(C)nnc23)c1`, the survival is inactive: 97%.

In the case of `O=C(CN1CCCN(Cc2ccc(F)cc2)S1(=O)=O)Nc1ccc2c(c1)OCCO2`, the survival was inactive: 121%.

On to `COc1ccc(N2CCN(C(=O)c3cccs3)CC2)cc1`, for which the survival is inactive: 85%.

Regarding `CCOc1ccccc1N(C)C(=O)Cn1nc(Cc2ccncc2)c2ccccc2c1=O`, the survival was inactive: 91%.

Turning to `CCCN(CCC)CCCNC(=O)Cn1ncc2c3ccccc3n(Cc3ccccc3F)c2c1=O`, the survival is inactive: 135%.

As to `CC(=O)c1nn(-c2ccc(OC(F)(F)F)cc2)nc1Nc1ccccc1`, the survival was inactive: 88%.

For `CCc1nn(CCCC(=O)NCc2ccc(C)cc2)c(=O)c2cc3occc3n12`, the survival is inactive: 93%.

Turning to `COc1ccccc1C(=O)OCc1cc(=O)n2nc(-c3cccs3)sc2n1`, the survival is inactive: 67%.

Turning to `O=C(NCc1ccco1)C(c1ccccc1)N(C(=O)Cn1nnc2ccccc21)C1CCCC1` (stereo unspecified), the survival is inactive: 100%.

With `CCOC(=O)c1c(NC(=O)CCCOc2ccc(C(C)(C)C)cc2)sc2c1CCCC2`, the survival is active: 9%.

Regarding `COc1ccc(OC)c(NC(=O)c2cnc(N3CCCCC3)c3ccccc23)c1`, the survival is inactive: 68%.

As to `CCOc1ccc(-c2cc(NC(=O)Nc3ccc(Cl)cc3)c(C(=O)OC)s2)cc1`, the survival was inactive: 88%.

On to `CCCSc1ncc(Cl)c(C(=O)N(Cc2cccc(Cl)c2)C2CCS(=O)(=O)C2)n1` (stereo unspecified), for which the survival was inactive: 90%.

With `CCOc1ccccc1NC(=S)N1CCC(NC(=O)c2ccco2)CC1`, the survival is inactive: 106%.

On to `CCOC(=O)C1CCCN(S(=O)(=O)c2cc(Br)cc3c2N(C(C)=O)CC3)C1` (stereo unspecified), for which the survival is inactive: 71%.

For `Cc1cccc(C(c2sc3nc(-c4ccco4)nn3c2O)N2CCN(c3ccccc3F)CC2)c1` (stereo unspecified), the survival is inactive: 93%.

`CNS(=O)(=O)c1ccc2c(c1)n(C)c(=O)n2C`: the survival was inactive: 80%.

For the compound `CCC(=O)N1CCc2cc(S(=O)(=O)NCCC(=O)NCc3ccc(C)cc3)ccc21`, the survival was inactive: 79%.

As for `O=C1C2C3C=CC(C3)C2C(=O)N1Cc1ccccc1` (stereo unspecified), the survival is inactive: 124%.

For the compound `COC(=O)c1ccc(NS(=O)(=O)c2ccc3[nH]c4c(c3c2)CCCC4)cc1`, the survival was active: 1%.

Turning to `O=C(NCCc1ccc(Cl)cc1)c1ccc2c(c1)N(Cc1ccc(F)cc1)C(=O)CS2`, the survival was active: 10%.

Regarding `CCc1ccc(NC(=O)[C@H](CSCc2ccccc2)N2Cc3ccccc3C2=O)cc1`, the survival is inactive: 79%.

For `COc1ccc(-c2cc3c(=O)n(CC(=O)Nc4cc(F)ccc4F)ccn3n2)cc1OC`, the survival was inactive: 72%.

With `Cc1nn(-c2ccccc2)c2sc(C(=O)Nc3ccc(Br)cc3)cc12`, the survival was inactive: 52%.

For `O=C1COc2ccc(-c3cc(-c4ccccc4)c4c(n3)-c3ccccc3OC4)cc2N1`, the survival was inactive: 81%.

As for `CCCn1c(SCC(O)c2ccccc2)nc2ccccc21` (stereo unspecified), the survival was inactive: 86%.

With `COc1cccc(CNC(=O)CCCn2ncn3c(cc4occc43)c2=O)c1`, the survival was inactive: 79%.

In the case of `CN(C)c1ccc(-c2nc(-c3cccs3)c(-c3cccs3)[nH]2)cc1`, the survival was inactive: 65%.

In the case of `COc1cc2nc(Nc3cccc(C)c3)nc(N)c2cc1OC`, the survival is inactive: 65%.

Regarding `Cc1ccc(C(=O)NCC(c2ccco2)S(=O)(=O)c2cccs2)cc1C` (stereo unspecified), the survival was inactive: 99%.

For the compound `COc1cc(-c2nc(=S)[nH][nH]2)cc(OC)c1OC`, the survival is inactive: 88%.

Regarding `Cc1ccc(-c2noc(-c3ccccc3NC(=O)C3CC(=O)N(c4ccc(C)cc4)C3)n2)cc1` (stereo unspecified), the survival is inactive: 86%.

For the compound `COC(=O)c1sc(-c2ccccc2)cc1NC(=O)Nc1ccc(Cl)cc1`, the survival was active: 4%.

As for `CC1=C(C(=O)NCc2ccccc2C)C2(CCCCCC2)OC1=O`, the survival is inactive: 73%.

On to `CCCCN(Cc1cc2ccccc2[nH]c1=O)C(=O)c1cccc(Cl)c1`, for which the survival is inactive: 87%.

In the case of `O=C(Oc1ccc(F)cc1)c1nc(SCc2ccc(F)cc2)ncc1Cl`, the survival was inactive: 87%.

Turning to `CCn1ccc(C(=O)Nc2sc(C(=O)OC)c(C)c2C(=O)OC)n1`, the survival is inactive: 100%.

On to `Cc1cc(OCCn2c(CCNC(=O)C3CCCCC3)nc3ccccc32)ccc1Cl`, for which the survival was inactive: 67%.

For the compound `Cc1ccc(-c2nc(SCC(=O)NCC3CCCO3)c3c(=O)n(C)c(=O)n(C)c3n2)cc1` (stereo unspecified), the survival was inactive: 73%.

For the compound `Cc1ccccc1N1CCN(S(=O)(=O)c2ccccc2)CC1`, the survival was inactive: 21%.

On to `Oc1c(C(c2ccccc2F)N2CCN(c3ccccc3F)CC2)sc2nc(-c3ccco3)nn12` (stereo unspecified), for which the survival was inactive: 79%.

In the case of `CCOC(=O)CSC1=Nc2ccccc2C2=NC(CCC(=O)NCc3ccc(OC)cc3)C(=O)N12` (stereo unspecified), the survival was inactive: 88%.

Regarding `N#Cc1ccccc1NC(=O)CNCC1CCCO1` (stereo unspecified), the survival was inactive: 93%.

For `COc1ccc(C)cc1NS(=O)(=O)c1ccc2c3c(cccc13)C(=O)N2`, the survival was inactive: 74%.

With `COc1ccccc1Cn1ccn(Cc2ccc(C)cc2)c(=O)c1=O`, the survival was inactive: 109%.

In the case of `Cc1cc(C)c(NC(=O)CSc2nccn2-c2cccc(Cl)c2)c(C)c1`, the survival is inactive: 102%.

For `COc1ccc(CNC(=O)CCC2N=C3c4ccccc4N=C(SCc4ccccc4F)N3C2=O)cc1` (stereo unspecified), the survival is active: 10%.

As for `CCCc1cc(N2CCN(c3cccc(C)c3C)CC2)n2cnnc2n1`, the survival is inactive: 75%.

These data come from PubChem BioAssay AID463173 (ICCB-Longwood Screening Facility, Harvard Medical School, 2010).
